Laboratory results reported in PubChem BioAssay AID686979 (National Center for Advancing Translational Sciences (NCATS), 2013).
Among all 420,000 compounds or so, about 50,000 (12%) were called active. Inconclusive results, whose numbers are uncertain, are shown with a selection of clear calls. Calls come from the whole dose curve; as a rule, active = well fitted inhibition curve with a large enough effect; inconclusive = small, poorly fitted or top-dose-only effect; inactive = flat fitted curve, though single readings scatter. No potency is given beside an inconclusive call; the fits are too rough.

Assay: qHTS for Inhibitors of human tyrosyl-DNA phosphodiesterase 1 (TDP1): qHTS in cells in presence of CPT; note: nearly all actives have a fitted effect of over 55% in size
Settings: chicken DT40 Tdp1-/-;hTDP1 cells + 20 nM CPT, ATP luminescence, 48 h; activity change, negative = growth inhibition: at 46.2 µM (top of the series) unless noted
Summary of the method: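 Chicken DT40 Tdp1-/- cells complemented with human TDP1, 400 cells/well, exposed to compounds plus 20 nM camptothecin for at least 48 h at 37 C; viability read as ATP content by CellTiter-Glo luminescence.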
% is set by controls: 0 for no effect and ±100 for the full control effect; potency is the fitted concentration of half-maximal effect; tags give direction and shape of the fitted curve.

SMILES	Potency	activity change, negative = growth inhibition
Nc1cccc[n+]1C(c1ccnc2ccccc12)[n+]1ccccc1N	active: 1.12 µM	
Cc1cccc(C(O)c2ncc(-c3ccc(F)cc3)[nH]2)c1C (stereo not given)	inconclusive [inhibitor, single point]	
O=C1CS(=O)(=O)C2(C(=O)Nc3ccccc32)N1c1cccc(Cl)c1 (stereo not given)		inactive: -19.2%
CC(C)(C)c1cc(NCc2ccccn2)n2ncc(-c3ccccc3)c2n1	active: 2.59 µM	
CC1=C(C(=O)N(C(C)C)C(C)C)CC(CC(=O)NC(c2ccccc2)c2ccccc2)C(=O)N1CCC1=CCCCC1 (stereo not given)	active: 25.9 µM	
Cc1nc(C)c(-c2ccc(SCC(=O)Nc3cccc(F)c3)nn2)s1	active: 16.4 µM	
O=C(CSCc1ccco1)Nc1cc(C(F)(F)F)ccc1N1CCOCC1		inconclusive: -31.5% [inhibitor]
O=C1/C(=C\c2ccco2)SC(=S)N1c1ccc(O)cc1		inactive: 5.34%
CCCC(=O)Nc1nc(-c2ccc(OC)cc2)cs1	inconclusive [inhibitor, single point]	
COC(=O)c1ccc(C)c(NS(=O)(=O)c2ccc(OC)cc2)c1	active: 0.291 µM	
C/C(N)=C(/C#N)C(=O)COC(=O)C(c1ccccc1)c1ccccc1		inconclusive: -32.1% [inhibitor]
COc1ccc(C2CC(c3ccccc3C(F)(F)F)=NN2c2ccc(S(N)(=O)=O)cc2)cc1 (stereo not given)	inconclusive [inhibitor, single point]	
OCCC1CN(Cc2cc3c(cc2Cl)OCO3)CCN1C1CCCC1 (stereo not given)		inactive: -29.1%
Cc1ccccc1OCC(O)Cn1c(SC(C)C)nc2c1c(=O)[nH]c(=O)n2C (stereo not given)	inconclusive [inhibitor, single point]	
O=C(CN1CCC(C(=O)c2ccc3c(c2)OCCO3)CC1)NCc1ccccc1	inconclusive [inhibitor, single point]	
COc1ccc(C(C)=O)cc1CSc1nnnn1-c1ccc(O)cc1	inconclusive [inhibitor, partial curve]	
C=CCCC(=O)N1CCC(n2nccc2NC(=O)c2ccc(OC)cc2)CC1		inactive: 16.9%
CCOc1ccc(NC(=O)CCCc2nc(-c3cccc(OC)c3)no2)cc1	inconclusive [inhibitor, single point]	
Oc1cc(O)c2c(c1)O[C@H](c1ccc(O)c(O)c1)[C@@H](O)C2	inactive	
N#Cc1ccccc1NC(=O)COC(=O)CCc1ccccc1		inactive: -1.9%
CC(C)C(N)c1csc(Nc2ccc(C(=O)NCCCO)cn2)n1 (stereo not given)		inactive: -1.32%
COc1cccc(CNc2nc3nc4c(c(=O)n3[nH]2)CCC4)c1		inactive: 7.39%
CN(C)c1ccc(Nc2cc(Cl)ncn2)cc1	inconclusive [inhibitor, single point]	
COc1ccc(-n2cc(-c3ccccc3)c3c(NCCOCCO)ncnc32)cc1	inconclusive [inhibitor, single point]	
CC1CC(C)CN(S(=O)(=O)c2cccc3nonc23)C1 (stereo not given)	inconclusive [inhibitor, partial curve]	

SMILES	Potency	activity change, negative = growth inhibition
CCOC(=O)COc1ccccc1/C=C1\NC(=O)NC1=O		inactive: 8.91%
O=C(CC(Nc1ccccc1)c1ccc(F)cc1)c1ccccc1 (stereo not given)	inconclusive [inhibitor, single point]	
COc1ccc(-c2csc(NC(=O)CSC(C)C(=O)Nc3cc(C)on3)n2)cc1OC (stereo not given)	active: 18.4 µM	
Cc1nc2ccc(Oc3ccccc3)cc2s1	inconclusive [inhibitor, partial curve, poor fit]	
O=S(=O)(c1cccs1)N1CN(C2CCCCC2)c2nc3ccccc3nc21	inconclusive [inhibitor, partial curve]	
O=C(N1CCOCC1)N1CCC(c2nc(-c3ccc(S(=O)(=O)N4CCOCC4)cc3)no2)CC1	inconclusive [inhibitor, partial curve]	
N/C(=N\OC(=O)CN1C(=O)c2ccccc2C1=O)c1ccc(Br)cc1		inactive: -0.0625%
O=C(Nc1nc(-c2ccncc2)cs1)c1ccco1	inconclusive [inhibitor, partial curve]	
Cc1ccc(CN2CCC[C@]3(N[C@H](c4ccc(C)cc4)[C@@H]4C(=O)N(Cc5ccccc5)C(=O)[C@@H]43)C2=O)cc1	inconclusive [inhibitor, single point]	
O=P(CCCCCCCCCP(=O)(c1ccccc1)c1ccccc1)(c1ccccc1)c1ccccc1	active: 7.31 µM	
Cn1c(=O)c2[nH]c(SCCN3CCOCC3)nc2n(C)c1=S	inconclusive [inhibitor, single point]	
CCOc1cc(/C=N/NC(=O)C2CCCC2)ccc1OC(C)C	inconclusive [inhibitor, partial curve]	
COCCNC(=O)C(c1ccc(O)cc1)N(Cc1cccs1)C(=O)CCC(=O)Nc1ccccn1 (stereo not given)		inactive: 0.19%
O=C(/C=C/c1ccc(-c2ccc(F)cc2)o1)N1CCCC1	inconclusive [inhibitor, single point]	
COc1ccc(C(=O)Nc2ccccc2N2CCOCC2)cc1Br	inconclusive [inhibitor, single point]	
COc1ccc(CCNC(=O)c2ccc(CS(=O)Cc3ccc(Cl)cc3)o2)cc1OC (stereo not given)	inconclusive [inhibitor, partial curve]	
CC1CN=C(N(C(=S)Nc2ccccc2)c2cccc(C(F)(F)F)c2)S1 (stereo not given)		inactive: 0.619%
COc1ccc2[nH]c(=O)c(CN(C(=O)c3cccc(Cl)c3)c3ccccc3OC)cc2c1	active: 23.1 µM	
CC1(C)C2CCC(CN=C(N)CSS(=O)(=O)O)C1C2 (stereo not given)	inconclusive [inhibitor, single point]	
O=S(=O)(c1ccccc1F)N1CCCc2ccccc21		inconclusive: -34.7% [inhibitor]
COc1cc(/C=C/C(=O)Nc2ccc(C)cc2)cc(OC)c1OC	inconclusive [inhibitor, single point]	
Cc1cccc(OCC(=O)Nc2nc3ccc([N+](=O)[O-])cc3s2)c1C	active: 25.9 µM	
COc1ccc(Nc2nc(-c3cccc([N+](=O)[O-])c3)nc3ccccc23)c(OC)c1	inconclusive [inhibitor, single point]	
CCOC(=O)C1CCCN(C(=O)c2ccc(Cl)cc2)C1 (stereo not given)		inactive: 4.6%
Cc1ccc(S(=O)(=O)N2CCCOC2CNC(=O)C(=O)NCCC2=CCCCC2)cc1 (stereo not given)	inconclusive [inhibitor, single point]	

SMILES	Potency	activity change, negative = growth inhibition
O=S(=O)(NN1CCOCC1)c1ccc(Br)cc1	inconclusive [inhibitor, full curve, poor fit]	
CCOC(=O)c1sc(-c2ccc(C)cc2)c(C#N)c1C		inactive: 5.2%
COc1ccc(-c2nc(Cn3c(SCc4cccc(Cl)c4)nc4ccncc43)c(C)o2)cc1	active: 23.1 µM	
O=[N+]([O-])c1cccc(N(CC2CO2)S(=O)(=O)c2ccccc2)c1 (stereo not given)	inconclusive [inhibitor, partial curve]	
Cc1ccc(C)c(NC(=O)c2cccc(Oc3ccc([N+](=O)[O-])cc3Cl)c2)c1	inconclusive [inhibitor, single point]	
CC1CCCCC1N1CN=C(Nc2nc3ccccc3s2)NC1 (stereo not given)	active: 20.6 µM	
COC(=O)c1cccnc1-n1c(=O)c2cccnc2n(Cc2cccc(OC)c2)c1=O	inconclusive [inhibitor, single point]	
Cc1ccc(C(=O)C(C)OC(=O)Cc2n[nH]c(=O)c3ccccc23)cc1 (stereo not given)	active: 11.6 µM	
Cc1cccc(-n2c(-c3ccco3)nc3c(cnn3-c3ccccc3C)c2=O)c1	active: 20.6 µM	
O=C(/C=C/c1ccccc1Cl)NCCc1ccccc1		inactive: -6.02%
Cc1ccc(C(c2sc3nc(-c4ccco4)nn3c2O)N2CCOCC2)cc1 (stereo not given)		inactive: -0.288%
O=C(NC1CCc2ccccc21)c1cc(COc2ccc(F)cc2F)on1 (stereo not given)	inconclusive [inhibitor, partial curve]	
O=C(CN1CCN(Cc2ccc(F)cc2Cl)S1(=O)=O)Nc1ccc(F)cc1	active: 11.6 µM	
O=C(Nc1ccccc1Cl)c1cc(C2CCCCN2S(=O)(=O)c2ccccc2)on1 (stereo not given)	inconclusive [inhibitor, single point]	
Cc1ccc(C)c(N2CCN(C(=O)Cc3ccc(-n4c(=O)[nH]c5ccsc5c4=O)cc3)CC2)c1	inconclusive [inhibitor, partial curve, poor fit]	
Cc1cc(OCC(=O)NC(C)C)ccc1Cl		inactive: -4%
COc1cc(NC(=O)Cn2ccn(Cc3ccccc3OC)c(=O)c2=O)cc(OC)c1		inactive: -0.0973%
Cc1cc(C)n2c(NC3CCCCC3)c(-c3cccnc3)nc2n1	inconclusive [inhibitor, partial curve]	
CCOC(=O)c1c(S(=O)(=O)N2CCCC(C(=O)N(C)Cc3ccccc3)C2)c(C)n(C)c1C (stereo not given)	active: 11.6 µM	
C/C(=C\C(=O)c1ccccc1)Nc1ccc2c(c1)OCO2		inconclusive: -31.6% [inhibitor]
COC(=O)c1cc2c(cc1NC(=O)c1c(C)nn(-c3ccc(C)cc3)c1-n1cccc1)OCO2		inactive: -5.01%
CCN(CCCNC(=O)C1CCCN(S(=O)(=O)CC)C1)c1cccc(C)c1 (stereo not given)	active: 23.1 µM	
CCOc1ccc(NC(=O)Cn2c(=O)oc3cc(S(=O)(=O)NC4CCCC4)ccc32)cc1	active: 14.6 µM	
Cc1ccc(NC(=O)Cn2c(C)cc(C)c(C#N)c2=O)cc1		inactive: 3.21%
N#Cc1nc(COc2ccc(Cl)cc2)oc1N1CCN(Cc2ccccc2)CC1	inconclusive [inhibitor, single point]	
